Data as given in PMC9911399, “Two distinct binding modes provide the RNA-binding protein RbFox with extraordinary sequence specificity”.
Numbering of substitutions follows the chain as printed; changes in the protein carry UniProt numbers. The list shows a part of the results.

T1: RBFOX1 RRM RbFoxmut (Fox-RRM*) (Homo sapiens, UniProt Q9NWB1 109-208, R118D;E147R;N151S;E152T)
T1 sequence: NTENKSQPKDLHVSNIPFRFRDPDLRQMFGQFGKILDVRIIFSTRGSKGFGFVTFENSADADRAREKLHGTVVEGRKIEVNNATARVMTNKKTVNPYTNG

B1: UCUUGUC (DNA:RNA)
RNA: GGGAGACCGGAAUUCAGAUUGUCCUCUUGUCUUAAAUCCCGUCGUAGCCACCA
DNA 1: CAATCTGAATTCCGGTCTCCC
DNA 2: TGGTGGCTACGACGGGATT
B2: UGUGGAA (DNA:RNA)
RNA: B1 RNA with C26G, U28G, U30A, C31A
DNA 1: CAATCTGAATTCCGGTCTCCC
DNA 2: TGGTGGCTACGACGGGATT
B3: GGAGCAU (DNA:RNA)
RNA: GGGAGACCGGAAUUCAGAUUGUCCGGAGCAUUUAAAUCCCGUCGUAGCCACCA
DNA 1: CAATCTGAATTCCGGTCTCCC
DNA 2: TGGTGGCTACGACGGGATT
B4: GCUAUAA (DNA:RNA)
RNA: B3 RNA with G26C, A27U, G28A, C29U, U31A
DNA 1: CAATCTGAATTCCGGTCTCCC
DNA 2: TGGTGGCTACGACGGGATT
B5: UUCUUUA (DNA:RNA)
RNA: B1 RNA with C26U, U27C, G29U, C31A
DNA 1: CAATCTGAATTCCGGTCTCCC
DNA 2: TGGTGGCTACGACGGGATT
B6: CCUUCUA (DNA:RNA)
RNA: B1 RNA with U25C, G29C, C31A
DNA 1: CAATCTGAATTCCGGTCTCCC
DNA 2: TGGTGGCTACGACGGGATT
B7: CUCUUUA (DNA:RNA)
RNA: B1 RNA with U25C, C26U, U27C, G29U, C31A
DNA 1: CAATCTGAATTCCGGTCTCCC
DNA 2: TGGTGGCTACGACGGGATT
B8: GUUAUAU (DNA:RNA)
RNA: B3 RNA with G26U, A27U, G28A, C29U
DNA 1: CAATCTGAATTCCGGTCTCCC
DNA 2: TGGTGGCTACGACGGGATT
B9: CGUCAGU (DNA:RNA)
RNA: B3 RNA with G25C, A27U, G28C, C29A, A30G
DNA 1: CAATCTGAATTCCGGTCTCCC
DNA 2: TGGTGGCTACGACGGGATT
B10: CACCCGC (DNA:RNA)
RNA: B3 RNA with G25C, G26A, A27C, G28C, A30G, U31C
DNA 1: CAATCTGAATTCCGGTCTCCC
DNA 2: TGGTGGCTACGACGGGATT
B11: UAUCAUG (DNA:RNA)
RNA: B1 RNA with C26A, U28C, G29A, C31G
DNA 1: CAATCTGAATTCCGGTCTCCC
DNA 2: TGGTGGCTACGACGGGATT
B12: GUGGAGU (DNA:RNA)
RNA: B3 RNA with G26U, A27G, C29A, A30G
DNA 1: CAATCTGAATTCCGGTCTCCC
DNA 2: TGGTGGCTACGACGGGATT
B13: GGGGAAA (DNA:RNA)
RNA: B3 RNA with A27G, C29A, U31A
DNA 1: CAATCTGAATTCCGGTCTCCC
DNA 2: TGGTGGCTACGACGGGATT
B14: GGACUUA (DNA:RNA)
RNA: B3 RNA with G28C, C29U, A30U, U31A
DNA 1: CAATCTGAATTCCGGTCTCCC
DNA 2: TGGTGGCTACGACGGGATT
B15: UCUACCC (DNA:RNA)
RNA: B1 RNA with U28A, G29C, U30C
DNA 1: CAATCTGAATTCCGGTCTCCC
DNA 2: TGGTGGCTACGACGGGATT
B16: CACUCGA (DNA:RNA)
RNA: B3 RNA with G25C, G26A, A27C, G28U, A30G, U31A
DNA 1: CAATCTGAATTCCGGTCTCCC
DNA 2: TGGTGGCTACGACGGGATT
B17: CCACGAU (DNA:RNA)
RNA: B3 RNA with G25C, G26C, G28C, C29G
DNA 1: CAATCTGAATTCCGGTCTCCC
DNA 2: TGGTGGCTACGACGGGATT
B18: GUACUUA (DNA:RNA)
RNA: B3 RNA with G26U, G28C, C29U, A30U, U31A
DNA 1: CAATCTGAATTCCGGTCTCCC
DNA 2: TGGTGGCTACGACGGGATT
B19: CCCUCUC (DNA:RNA)
RNA: B1 RNA with U25C, U27C, G29C
DNA 1: CAATCTGAATTCCGGTCTCCC
DNA 2: TGGTGGCTACGACGGGATT
B20: CCGAAAA (DNA:RNA)
RNA: B3 RNA with G25C, G26C, A27G, G28A, C29A, U31A
DNA 1: CAATCTGAATTCCGGTCTCCC
DNA 2: TGGTGGCTACGACGGGATT
B21: ACUAUCU (DNA:RNA)
RNA: B1 RNA with U25A, U28A, G29U, U30C, C31U
DNA 1: CAATCTGAATTCCGGTCTCCC
DNA 2: TGGTGGCTACGACGGGATT
B22: CAGUAAG (DNA:RNA)
RNA: B3 RNA with G25C, G26A, A27G, G28U, C29A, U31G
DNA 1: CAATCTGAATTCCGGTCTCCC
DNA 2: TGGTGGCTACGACGGGATT
B23: UCCUGUG (DNA:RNA)
RNA: B1 RNA with U27C, C31G
DNA 1: CAATCTGAATTCCGGTCTCCC
DNA 2: TGGTGGCTACGACGGGATT
B24: ACAACCA (DNA:RNA)
RNA: B3 RNA with G25A, G26C, G28A, A30C, U31A
DNA 1: CAATCTGAATTCCGGTCTCCC
DNA 2: TGGTGGCTACGACGGGATT
B25: UCCCCCA (DNA:RNA)
RNA: B1 RNA with U27C, U28C, G29C, U30C, C31A
DNA 1: CAATCTGAATTCCGGTCTCCC
DNA 2: TGGTGGCTACGACGGGATT
B26: CACAUAC (DNA:RNA)
RNA: B3 RNA with G25C, G26A, A27C, G28A, C29U, U31C
DNA 1: CAATCTGAATTCCGGTCTCCC
DNA 2: TGGTGGCTACGACGGGATT
B27: UGAAGAA (DNA:RNA)
RNA: B3 RNA with G25U, G28A, C29G, U31A
DNA 1: CAATCTGAATTCCGGTCTCCC
DNA 2: TGGTGGCTACGACGGGATT
B28: UUAGUCC (DNA:RNA)
RNA: B3 RNA with G25U, G26U, C29U, A30C, U31C
DNA 1: CAATCTGAATTCCGGTCTCCC
DNA 2: TGGTGGCTACGACGGGATT
B29: ACAUUAA (DNA:RNA)
RNA: B3 RNA with G25A, G26C, G28U, C29U, U31A
DNA 1: CAATCTGAATTCCGGTCTCCC
DNA 2: TGGTGGCTACGACGGGATT
B30: UCCGAGA (DNA:RNA)
RNA: B1 RNA with U27C, U28G, G29A, U30G, C31A
DNA 1: CAATCTGAATTCCGGTCTCCC
DNA 2: TGGTGGCTACGACGGGATT
B31: UCAAUAC (DNA:RNA)
RNA: B1 RNA with U27A, U28A, G29U, U30A
DNA 1: CAATCTGAATTCCGGTCTCCC
DNA 2: TGGTGGCTACGACGGGATT

What follows are binders tested against T1, RBFOX1 RRM RbFoxmut (Fox-RRM*) (assay: EMSA; HiTS-Eq, 1 nM pool, 10 min; buffer printed only for the single-RNA assays: 10 mM Tris pH 7.5, 150 mM NaCl, 3.4 mM EDTA, 0.001% NP-40, 30 C). Conditions: tags: His6 N-terminal (pET28a); label: 5' 32P.
Summary of the method: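 Purified wild-type or mutant RbFox RRM at increasing concentrations was equilibrated with 1 nM of 5′-radiolabelled RNA carrying 7 randomized nucleotides for 10 min in 50 µL. Unbound RNA was separated by 8% native PAGE and sequenced. Relative association constants came from read-count changes of each RNA species compared with the control reaction, normalised to the cognate motif.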
For B1, the binding signal was 0.297 KA relative to UGCAUGU. B2 was tested, and the binding signal was 0.118 KA relative to UGCAUGU. B3 was tested, and the binding signal was 0.0911 KA relative to UGCAUGU. B4 was tested, and the binding signal was 0.114 KA relative to UGCAUGU. For B5, the binding signal was 0.118 KA relative to UGCAUGU. In the case of B6, the binding signal is reported as 0.0885 KA relative to UGCAUGU. For B7, the binding signal was 0.113 KA relative to UGCAUGU. For B8, the binding signal was 0.118 KA relative to UGCAUGU. For B9, the binding signal was 0.112 KA relative to UGCAUGU. For B10, the binding signal was 0.0852 KA relative to UGCAUGU. For B11, the binding signal was 0.116 KA relative to UGCAUGU. In the case of B12, the binding signal is reported as 0.16 KA relative to UGCAUGU. B13 was tested, and the binding signal was 0.0862 KA relative to UGCAUGU. With B14 the binding signal was 0.0786 KA relative to UGCAUGU. With B15 the binding signal was 0.0616 KA relative to UGCAUGU. B16 was tested, and the binding signal was 0.131 KA relative to UGCAUGU. With B17 the binding signal was 0.0715 KA relative to UGCAUGU. B18 was tested, and the binding signal was 0.13 KA relative to UGCAUGU. B19 was tested, and the binding signal was 0.0644 KA relative to UGCAUGU. B20 was tested, and the binding signal was 0.0828 KA relative to UGCAUGU. B21 was tested, and the binding signal was 0.0733 KA relative to UGCAUGU. With B22 the binding signal was 0.103 KA relative to UGCAUGU. For B23, the binding signal was 0.119 KA relative to UGCAUGU. In the case of B24, the binding signal is reported as 0.0744 KA relative to UGCAUGU. With B25 the binding signal was 0.138 KA relative to UGCAUGU. In the case of B26, the binding signal is reported as 0.102 KA relative to UGCAUGU. For B27, the binding signal was 0.0716 KA relative to UGCAUGU. In the case of B28, the binding signal is reported as 0.0962 KA relative to UGCAUGU. B29 was tested, and the binding signal was 0.124 KA relative to UGCAUGU. For B30, the binding signal was 0.0734 KA relative to UGCAUGU. With B31 the binding signal was 0.0867 KA relative to UGCAUGU.
